Experiment [1] concerns the target NSUN2 (NOP2/Sun RNA methyltransferase family member 2), wild type, in PANC-1 cells (human (endogenous in PANC-1)) (UniProt Q08J23). The experiment can be described thus: co-IP; PANC-1 lysates in IP lysis buffer, antibody (NSUN2 antibody in Figure 3M) overnight at 4 °C, protein A/G magnetic beads, Western blot; cells with siNC, LDHA and/or LDHB siRNA, ddH2O or L-lactate; wild-type or NSUN2-K692 knock-in cells. For orientation: In western blotting, separated proteins are transferred to a membrane and probed.

Amino acid sequences for entries named in this document (tags omitted).
UniProt Q9UNE7: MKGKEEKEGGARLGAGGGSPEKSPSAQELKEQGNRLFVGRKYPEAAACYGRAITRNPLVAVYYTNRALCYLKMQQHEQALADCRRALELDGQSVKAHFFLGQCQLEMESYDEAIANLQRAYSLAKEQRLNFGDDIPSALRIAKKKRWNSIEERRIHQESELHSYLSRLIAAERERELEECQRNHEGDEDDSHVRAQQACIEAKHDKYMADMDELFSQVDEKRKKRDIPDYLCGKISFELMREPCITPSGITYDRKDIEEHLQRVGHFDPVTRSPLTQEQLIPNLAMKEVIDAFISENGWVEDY

In experiment [2] the target is T1, NSUN2 K692R (non-lactylatable), CRISPR/Cas9 knock-in at the endogenous locus of PANC-1 cells (human (endogenous in PANC-1)) (UniProt Q08J23).
T1 sequence: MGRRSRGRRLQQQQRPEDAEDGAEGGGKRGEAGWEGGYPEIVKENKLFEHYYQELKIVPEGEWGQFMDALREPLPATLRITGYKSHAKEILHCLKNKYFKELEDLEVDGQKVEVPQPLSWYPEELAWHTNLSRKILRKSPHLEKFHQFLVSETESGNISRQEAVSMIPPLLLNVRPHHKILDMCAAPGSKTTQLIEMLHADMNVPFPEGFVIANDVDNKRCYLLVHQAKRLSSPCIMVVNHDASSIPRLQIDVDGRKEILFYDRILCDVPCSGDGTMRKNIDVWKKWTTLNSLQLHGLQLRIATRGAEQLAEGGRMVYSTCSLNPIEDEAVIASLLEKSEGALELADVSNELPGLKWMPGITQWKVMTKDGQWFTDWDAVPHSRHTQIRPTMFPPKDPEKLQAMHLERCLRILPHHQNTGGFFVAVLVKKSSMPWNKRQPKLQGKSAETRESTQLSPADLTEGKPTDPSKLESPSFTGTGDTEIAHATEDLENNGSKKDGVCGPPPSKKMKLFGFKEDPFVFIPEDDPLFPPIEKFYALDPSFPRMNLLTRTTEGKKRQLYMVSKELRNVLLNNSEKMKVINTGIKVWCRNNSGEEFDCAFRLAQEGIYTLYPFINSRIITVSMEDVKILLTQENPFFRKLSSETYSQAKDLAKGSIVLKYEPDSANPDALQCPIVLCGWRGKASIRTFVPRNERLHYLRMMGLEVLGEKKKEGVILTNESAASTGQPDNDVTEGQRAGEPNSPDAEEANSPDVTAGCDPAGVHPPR
Described as above.

The target in experiment [3] is T2, GST-NSUN2 (1-250) (human) (UniProt Q08J23).
T2 sequence: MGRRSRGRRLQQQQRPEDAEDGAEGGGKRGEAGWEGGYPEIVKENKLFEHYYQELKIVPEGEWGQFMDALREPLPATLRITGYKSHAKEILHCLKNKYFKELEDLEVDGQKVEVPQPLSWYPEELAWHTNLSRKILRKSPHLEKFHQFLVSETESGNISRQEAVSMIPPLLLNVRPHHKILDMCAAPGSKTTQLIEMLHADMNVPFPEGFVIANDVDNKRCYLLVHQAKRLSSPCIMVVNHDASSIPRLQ
Briefly: pull-down; in vitro translated STUB1 incubated with GST or GST-NSUN2 fragments; glutathione eluates and 15% input analysed by SDS-PAGE and immunoblot with anti-STUB1; only the target purified.

Experiment [4] has as its target T3, GST-NSUN2 (251-500) (human) (UniProt Q08J23).
T3 sequence: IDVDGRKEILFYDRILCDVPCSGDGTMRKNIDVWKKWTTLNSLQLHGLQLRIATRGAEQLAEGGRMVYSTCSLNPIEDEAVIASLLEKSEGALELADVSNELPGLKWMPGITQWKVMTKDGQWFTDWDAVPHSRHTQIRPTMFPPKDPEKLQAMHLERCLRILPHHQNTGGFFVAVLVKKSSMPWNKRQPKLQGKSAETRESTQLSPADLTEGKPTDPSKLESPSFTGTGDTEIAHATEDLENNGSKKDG
The experiment is described as above.

Experiment [5] has as its target T4, GST-NSUN2 (501-767) (human) (UniProt Q08J23).
T4 sequence: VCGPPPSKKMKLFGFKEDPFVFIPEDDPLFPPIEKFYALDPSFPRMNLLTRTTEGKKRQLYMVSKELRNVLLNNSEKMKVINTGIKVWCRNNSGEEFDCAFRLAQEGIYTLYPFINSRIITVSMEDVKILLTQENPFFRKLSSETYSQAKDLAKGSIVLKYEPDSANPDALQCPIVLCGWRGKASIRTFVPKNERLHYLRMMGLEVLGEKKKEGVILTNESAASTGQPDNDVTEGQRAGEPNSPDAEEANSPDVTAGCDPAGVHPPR
Described as above.

For experiment [6], the target named is NSUN2, purified protein of the GST pull-down (Figure 3N) (human) (UniProt Q08J23). Briefly: pull-down; GST pull-down with purified proteins; which protein carried GST is not stated; both purified.

Results are given in words; binding and its absence hold for the method and conditions named. For part of these data: In cells and extracts the contact can be indirect. Some binding calls cover weakened binding; strength is not graded here. For part of these data: Where a sequence is shown, tags or fusion partners need not be part of it.

With “STUB1 (STIP1 homology and U-box containing protein 1), in PANC-1 cells (from UniProt Q9UNE7 1-303)”, the binding result in experiment [1] and in experiment [2] was “binds” throughout.

Regarding “STUB1, in vitro translated (from UniProt Q9UNE7 1-303)”, the binding entry is given as “no binding” in experiment [3], “no binding” in experiment [4] and “binds” in experiment [5].

Take “STUB1, purified protein of the GST pull-down (Figure 3N) (from UniProt Q9UNE7 1-303)”: the binding entry in experiment [6] is “binds”.
